# The full ranking holds about 33,000 sequences; the median of “E-score (-0.5 to 0.5)” is about -0.04, and the highest 2% start at about 0.36. Some of the results follow.
# Target: T1, Hmlalpha2 (UniProt P0CY09)
# T1 sequence: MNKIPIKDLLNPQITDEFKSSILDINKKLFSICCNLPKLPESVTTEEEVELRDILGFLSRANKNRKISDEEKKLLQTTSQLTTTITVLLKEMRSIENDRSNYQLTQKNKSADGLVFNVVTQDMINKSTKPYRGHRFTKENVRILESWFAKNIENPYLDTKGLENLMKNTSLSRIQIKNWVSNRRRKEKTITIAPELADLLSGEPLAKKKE
# Test: PBM E-score (8-mer binding enrichment) (E-score (-0.5 to 0.5)); higher = stronger / more preferred TF binding; most listed sequences are background and not binding sites
# Conditions: protein concentration: 200 nM; construct: GST-full length
# How it was run: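 Masliner-normalised scans of fluorescent anti-GST signal were the basis for scoring. That signal came from GST-tagged yeast transcription factors applied at about 100-200 nM to double-stranded universal all-10-mer Agilent arrays on fresh or once-stripped slides. Each ungapped eight-base word, pooled with its reverse complement, received an E-score from the Universal PBM Analysis Suite.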
row,Sequence,PBM E-score
1,GACGCTCC,-0.304
2,CATGCTAA,0.298
3,GCAGTCCA,-0.0643
4,ATTGTGGG,-0.145
5,AGCGCGAT,0.0252
6,TGGCACCA,-0.128
7,CTTATCGC,-0.216
8,GACCGCAC,-0.227
9,ACGGTTCC,-0.192
10,AGACGTTC,-0.00208
11,ATGCGCCA,-0.0251
12,GTCAAGAC,-0.135
13,CCAAACCG,-0.281
14,ACCTAAAG,-0.0573
15,GCTCCGAC,-0.0741
16,ATCTGGGC,-0.311
17,ATTCTGCA,-0.0444
18,ATCGACTA,-0.0703
19,TATCAGCA,-0.0185
20,TAACGGGA,-0.0973
21,ACCCAAGG,-0.14
22,CAAGATGA,-0.0169

row,Sequence,PBM E-score
1,ACGGAACT,-0.0556
2,ATCGAAAT,-0.0865
3,CTGTAATC,0.243
4,AGAGATCA,-0.177
5,CAAGTTCG,-0.027
6,ACTCCGTA,-0.223
7,AGACCAGC,-0.307
8,CAAGATAA,0.177
9,ATAATGGG,-0.0208
10,ATATGTAA,0.416
11,CGGACGAC,-0.0451
12,AACCGCCG,-0.113
13,AACAGGAC,0.202
14,AGACAATG,0.0695
15,AGGGACCC,-0.33
16,GAGCTACA,0.0237
17,CATATATA,0.231
18,CGCCGTTC,-0.118
19,ACGATCGG,-0.135
20,CCTGAGAC,-0.148
21,TCCTTTCA,-0.0612
22,AGTAAAGC,0.139

row,Sequence,PBM E-score
1,AAGAAAGT,-0.0831
2,AGGTGTCC,-0.111
3,ACTCACGC,0.0398
4,GGTCATCA,-0.155
5,ACTCTATA,-0.00313
6,CATCGTAA,0.263
7,GTGCAATA,0.0994
8,AAATGCGC,0.171
9,GATAATGA,-0.091
10,GACCCATA,-0.143
11,AACCGTTA,0.0791
12,CATTGCTA,0.0515
13,CCTCTTAA,-0.022
14,CCACTACA,0.212
15,CAACCAAA,0.00973
16,AGGGAGAA,-0.17
17,AACTCTAC,0.0855
18,ACAAGTAG,0.0754
19,AGATAAGC,-0.0228
20,CGTAAGTA,0.175
21,CCCAAAGG,-0.177
22,CTCACATC,-0.0809

row,Sequence,PBM E-score
1,AGTAAGCC,-0.078
2,CCAATTCG,0.0567
3,AAGGTCTG,0.0312
4,ATTTCGCA,0.102
5,GGCTTCAA,-0.0392
6,CCGTAGTA,-0.123
7,ATACTGAT,0.126
8,GCTGAACA,0.0644
9,CCTCGAAG,-0.129
10,ATAAAGTC,-0.0207
11,AGGTTATA,0.0651
12,GGGAGTGA,-0.0545
13,AGAAGGCT,-0.337
14,TACGGTAA,0.118
15,CAGCGCTA,0.0425
16,CCTGACCC,-0.228
17,CTAACCAA,0.202
18,CAGCCGGC,-0.258
19,CAGGGTAC,0.0141
20,AACCCGAT,0.0593

# Source: the supplement of paper PMC3334620
